Laboratory results as given in US9023789B2, “Amylin analogs and pharmaceutical compositions thereof” (Novo Nordisk A/S, priority 2012, dated 2015).
At least one read-out could not be matched to a standard name with certainty. Numbered stars: 1 amine (or outer) side, 2 acyl side, 3 side chain; on linkers, the order of the positions; unused ones are H or OH. Bridge positions count the residues as written; N and C are the ends. Side chains are listed from the residue outwards. Peptide text beside a SMILES is read from it. * marks the point of attachment. C20 diacid = O=C(O)CCCCCCCCCCCCCCCCCCC(=O)*; γGlu = O=C(O)[C@H](CCC(=O)[*:2])N[*:1]; AEEA = NCCOCCOCC(=O)O

assay: ASSAY (III) ThT fibrillation assay for physical stability; type: physicochemical
Outline: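 Physical stability scored by ThT fluorescence (444 nm excitation, 485 nm emission) tracked every 20 min during 37 °C incubation with 960 rpm shaking, ThT at 1 μM final. Values are replicate means with SD at chosen times; HPLC against pramlintide standard gives initial and post-assay soluble concentrations.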

Row | SMILES | ThT pH 4.0 recovery (%)
1 | CC[C@H](C)[C@H](NC(=O)[C@H](C)NC(=O)CNC(=O)[C@H](Cc1ccccc1)NC(=O)[C@H](CC(N)=O)NC(=O)[C@@H]1CCCN1C(=O)[C@H](CO)NC(=O)[C@H](CO)NC(=O)[C@H](Cc1c[nH]cn1)NC(=O)[C@H](CCCNC(=N)N)NC(=O)[C@H](CC(C)C)NC(=O)[C@H](Cc1ccccc1)NC(=O)[C@H](CC(N)=O)NC(=O)[C@H](C)NC(=O)[C@H](CC(C)C)NC(=O)[C@H](CCCNC(=N)N)NC(=O)[C@H](CCC(N)=O)NC(=O)[C@@H](NC(=O)[C@H](C)NC(=O)[C@@H]1CSSC[C@H](NC(=O)[C@@H](N)CCCCNC(=O)COCCOCCNC(=O)CC[C@H](NC(=O)CCCCCCCCCCCCCCCCCCC(=O)O)C(=O)O)C(=O)N[C@@H](CC(N)=O)C(=O)N[C@@H]([C@@H](C)O)C(=O)N[C@@H](C)C(=O)N[C@@H]([C@@H](C)O)C(=O)N1)[C@@H](C)O)C(=O)N1CCC[C@H]1C(=O)N1CCC[C@H]1C(=O)N[C@@H](CO)C(=O)N[C@H](C(=O)N1CCC[C@H]1C(=O)N[C@H](C(=O)NCC(=O)N[C@@H](CO)C(=O)N[C@@H](CC(N)=O)C(=O)N[C@H](C(=O)N[C@@H](Cc1ccc(O)cc1)C(N)=O)[C@@H](C)O)C(C)C)[C@@H](C)O [Example 53] (H-K([AEEA-γGlu-C20 diacid])CNTATCATQRLANFLRHSSPNFGAIPPSTPVGSNTY-NH2; disulfide 2-7; N-terminus assumed) | 0%
2 | CC[C@H](C)[C@H](NC(=O)[C@H](C)NC(=O)CNC(=O)[C@H](Cc1ccccc1)NC(=O)[C@H](CC(N)=O)NC(=O)[C@@H]1CCCN1C(=O)[C@H](CO)NC(=O)[C@H](CO)NC(=O)[C@H](Cc1c[nH]cn1)NC(=O)[C@H](CCCNC(=N)N)NC(=O)[C@H](CC(C)C)NC(=O)[C@H](Cc1ccccc1)NC(=O)[C@H](CC(N)=O)NC(=O)[C@H](C)NC(=O)[C@H](CC(C)C)NC(=O)[C@H](CCCNC(=N)N)NC(=O)[C@H](CCC(N)=O)NC(=O)[C@@H](NC(=O)[C@H](C)NC(=O)[C@@H]1CSSC[C@H](NC(=O)[C@@H](N)CCCCNC(=O)COCCOCCNC(=O)CC[C@H](NC(=O)CCCCCCCCCCCCCCCCCCC(=O)O)C(=O)O)C(=O)N[C@@H](CC(N)=O)C(=O)N[C@@H]([C@@H](C)O)C(=O)N[C@@H](C)C(=O)N[C@@H]([C@@H](C)O)C(=O)N1)[C@@H](C)O)C(=O)N1CCC[C@H]1C(=O)N[C@@H](CO)C(=O)N1CCC[C@H]1C(=O)N[C@H](C(=O)N1CCC[C@H]1C(=O)N[C@H](C(=O)NCC(=O)N[C@@H](CO)C(=O)N[C@@H](CC(N)=O)C(=O)N[C@H](C(=O)N[C@@H](Cc1ccc(O)cc1)C(N)=O)[C@@H](C)O)C(C)C)[C@@H](C)O [Example 54] (H-K([AEEA-γGlu-C20 diacid])CNTATCATQRLANFLRHSSPNFGAIPSPTPVGSNTY-NH2; disulfide 2-7; N-terminus assumed) | 0%
3 | CC[C@H](C)[C@H](NC(=O)[C@H](C)NC(=O)CNC(=O)[C@H](Cc1ccccc1)NC(=O)[C@H](CC(N)=O)NC(=O)[C@@H]1CCCN1C(=O)[C@H](CO)NC(=O)[C@H](CO)NC(=O)[C@H](Cc1c[nH]cn1)NC(=O)[C@H](CCCNC(=N)N)NC(=O)[C@H](CC(C)C)NC(=O)[C@H](Cc1ccccc1)NC(=O)[C@H](CC(N)=O)NC(=O)[C@H](C)NC(=O)[C@H](CC(C)C)NC(=O)[C@H](CCCNC(=N)N)NC(=O)[C@H](CCC(N)=O)NC(=O)[C@@H](NC(=O)[C@H](C)NC(=O)[C@@H]1CSSC[C@H](NC(=O)[C@@H](N)CCCCNC(=O)COCCOCCNC(=O)CC[C@H](NC(=O)CCCCCCCCCCCCCCCCCCC(=O)O)C(=O)O)C(=O)N[C@@H](CC(N)=O)C(=O)N[C@@H]([C@@H](C)O)C(=O)N[C@@H](C)C(=O)N[C@@H]([C@@H](C)O)C(=O)N1)[C@@H](C)O)C(=O)N1CCC[C@H]1C(=O)N1CCC[C@H]1C(=O)N[C@@H](CO)C(=O)N[C@H](C(=O)N[C@@H](CC(N)=O)C(=O)N[C@H](C(=O)NCC(=O)N1CCC[C@H]1C(=O)N[C@@H](CC(N)=O)C(=O)N[C@H](C(=O)N[C@@H](Cc1ccc(O)cc1)C(N)=O)[C@@H](C)O)C(C)C)[C@@H](C)O [Example 55] (H-K([AEEA-γGlu-C20 diacid])CNTATCATQRLANFLRHSSPNFGAIPPSTNVGPNTY-NH2; disulfide 2-7; N-terminus assumed) | 0%
